Results: the supplement of paper PMC11417369
The other results are listed elsewhere or left out.

system: PfAP2-HC AP2 domain (GST-tagged); test: gcPBM binding intensity (ln(normalized median fluorescence intensity)); higher = stronger DNA binding
How it was run: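 Binding of GST-tagged P. falciparum DNA-binding domains, expressed in E. coli and used at about 25 μg on average, was carried out for 1 h in 1× PBS containing 1% milk, 0.2 mg/ml BSA, 0.5% salmon testes DNA and 0.03% Triton X-100. The target was an Agilent 4 × 180k array of primer-extended double-stranded 36-bp intergenic genomic probes plus negative controls, read with Alexa488 anti-GST antibody at 488 nm. Binding intensity is the highest Masliner-normalised natural-log median intensity across replicate spots of either probe orientation.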

Sequence	gcPBM binding intensity (ln)
TTAAAGTATAACTGTACATGCGAGTAAAAGAATGAC [TGCATGCA_site899]	9.98
GAAAAAAAACACATTGTGCACTTTTCCTTAAGTATA [GTGCAC_site9475]	9.58
GGAGAAAAAAAAAAAAAACACACGGTACATTCAAAG [CACACA_site1503]	9.92
TTTTTTTCGTATATTACACACTATATATAGAAATTA [CACACA_site298]	9.56
AAAAAAAAAAAGCACACACACATATGCGTATATATA [CACACA_site954]	10.9
AAAGAAGGTAAACACACACACACACCGACAAAAAAA [CACACA_site9255]	11.5
AAATTATCCAAAAATTGTACTTAAAACAACATAAAA [XGTACX_site6238]	9.58
ACCATTTGTAGGTAAACACACATTATTCTTAATATC [CACACA_site5453]	9.77
TTTCTCTTATTCCAATCTATAATAAGTATCAATATT [CACACA_negctrl_site179]	9.59
ATATATTCATTTTTATGTACGTAAATTGTAAATTGG [XGTACX_site8242]	9.62
AAAATAATAATAAAAAGTACATGTGTATATAATAAA [XGTACX_site754]	9.91
TGCATTATTTTATGAAGTACATATGAACAAAAAATT [XGTACX_site2185]	9.48
AATATTAAACAAATGAAAAAAAAATATATATTATAT [CACACA_negctrl_site742]	9.66
TATGTTTTTCGGTATGCATGCATATGCTTAATAATA [TGCATGCA_site184]	9.55
AAAATAACACAAATGGGTACATATTATATTAAATAA [XGTACX_site7027]	9.74
AATATATATATGATTATATATATATATATATATATA [GTGCAC_negctrl_site290]	9.35
TTTAATTAAAATATATGTACATATATATATATATAT [XGTACX_site4517]	9.66
GCACCAAAAAAAAGACGTACAGTTATATTAAAATAG [XGTACX_site8926]	9.6
AAATGAACAAGTGGCACACACACATTCTAACTAATT [CACACA_site3203]	10.6
ATATGATTTGGATGTAGTACATATTTTTTTATGTTT [XGTACX_site1929]	9.82
AACCAAATTTCACCATGTACATATTGATAAATATAT [XGTACX_site1374]	9.65
AATGAACAGACGAGCACACACACACCCATATATATA [CACACA_site1018]	10.9
TAATGTATTATTTAATGTACTTAAAAAATAAATAAA [XGTACX_site3296]	9.48
ACCTTTAATAAATACACACACATAAAAAAAATATAT [CACACA_site5086]	10.2
